From the BET-seq Pho4 binding data (Le et al. 2018)
Some of the results follow. The energies were worked out here from pooled read counts, against the library average; single values are noisy.

These sequences were tested against T1, Pho4 (S. cerevisiae) (UniProt P07270) (assay: relative binding free energy (BET-seq); higher = weaker binding). Settings: reference: library average.
T1 sequence: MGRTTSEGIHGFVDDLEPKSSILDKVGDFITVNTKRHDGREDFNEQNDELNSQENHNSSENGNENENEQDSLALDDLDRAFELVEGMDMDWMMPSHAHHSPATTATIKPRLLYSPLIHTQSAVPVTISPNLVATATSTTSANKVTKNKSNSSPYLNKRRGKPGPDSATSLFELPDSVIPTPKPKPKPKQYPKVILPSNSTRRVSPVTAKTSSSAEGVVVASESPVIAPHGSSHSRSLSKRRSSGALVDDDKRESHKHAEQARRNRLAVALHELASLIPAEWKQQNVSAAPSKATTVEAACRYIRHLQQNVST
With ATTATCACGTGAATTT the “relative binding free energy” value was 0.28 kcal/mol.
With ATTATCACGTGGATGG the “relative binding free energy” value was 0.15 kcal/mol.
GGCGTCACGTGATTAG was tested, and the “relative binding free energy” value was 0.29 kcal/mol.
In the case of AAGGGCACGTGCATAT, the “relative binding free energy” value was -0.13 kcal/mol.
CTTTACACGTGTTGTC was tested, and the “relative binding free energy” value was 0.09 kcal/mol.
For ACTATCACGTGTTTAT, the “relative binding free energy” value was 0.07 kcal/mol.
For TGATGCACGTGGCGCG, the “relative binding free energy” value was 0.03 kcal/mol.
For GCGACCACGTGAGGGG, the “relative binding free energy” value was 0.33 kcal/mol.
In the case of GCATACACGTGGGCGG, the “relative binding free energy” value was 0.02 kcal/mol.
In the case of AATCGCACGTGTTGGG, the “relative binding free energy” value was -0.12 kcal/mol.
ATGCGCACGTGGTGAG was tested, and the “relative binding free energy” value was -0.1 kcal/mol.
In the case of GGAGGCACGTGGTATA, the “relative binding free energy” value was -0.12 kcal/mol.
TTGATCACGTGGAAAG was tested, and the “relative binding free energy” value was 0.19 kcal/mol.
With TTAGGCACGTGACAGT the “relative binding free energy” value was -0.02 kcal/mol.
For TTAGGCACGTGCTGAT, the “relative binding free energy” value was -0.2 kcal/mol.
With AGCCTCACGTGTTGGT the “relative binding free energy” value was 0.15 kcal/mol.
With AGTGGCACGTGAGGAA the “relative binding free energy” value was 0.05 kcal/mol.
With CAGTTCACGTGGGTAG the “relative binding free energy” value was 0.06 kcal/mol.
In the case of TTCTTCACGTGTTTTG, the “relative binding free energy” value was 0.29 kcal/mol.
In the case of TTGGTCACGTGCTGTA, the “relative binding free energy” value was 0.08 kcal/mol.
For CATATCACGTGTGTTA, the “relative binding free energy” value was 0.2 kcal/mol.
In the case of GATAACACGTGAGGGG, the “relative binding free energy” value was 0.31 kcal/mol.
TTTGACACGTGCAAGT was tested, and the “relative binding free energy” value was 0.02 kcal/mol.
With AATGACACGTGCGTTG the “relative binding free energy” value was -0.1 kcal/mol.
With TGCAACACGTGGCGGG the “relative binding free energy” value was -0.07 kcal/mol.
In the case of TTCGTCACGTGAACGG, the “relative binding free energy” value was 0.24 kcal/mol.
With TTTGCCACGTGGTCAT the “relative binding free energy” value was -0.16 kcal/mol.
In the case of AGGTCCACGTGTGGGT, the “relative binding free energy” value was 0.1 kcal/mol.
In the case of AATGGCACGTGCAGAG, the “relative binding free energy” value was -0.09 kcal/mol.
With AGAGGCACGTGGCGTT the “relative binding free energy” value was -0.29 kcal/mol.
In the case of AGAGACACGTGAGGGG, the “relative binding free energy” value was 0.22 kcal/mol.
With TGAACCACGTGGGGTA the “relative binding free energy” value was -0.24 kcal/mol.
For GCGAGCACGTGGCTGG, the “relative binding free energy” value was -0.1 kcal/mol.
In the case of ACTTGCACGTGGTTTG, the “relative binding free energy” value was -0.17 kcal/mol.
TGCGACACGTGTGGCT was tested, and the “relative binding free energy” value was 0.12 kcal/mol.
TGTGTCACGTGCTGCG was tested, and the “relative binding free energy” value was -0.11 kcal/mol.
TGGCTCACGTGAGGCG was tested, and the “relative binding free energy” value was 0.47 kcal/mol.
For CGAGTCACGTGGTTAT, the “relative binding free energy” value was 0.1 kcal/mol.
With AGCATCACGTGGGGAG the “relative binding free energy” value was -0.05 kcal/mol.
With GTGGCCACGTGTGGGC the “relative binding free energy” value was -0.1 kcal/mol.
GTTTTCACGTGGGCCG was tested, and the “relative binding free energy” value was 0.31 kcal/mol.
In the case of CTGGTCACGTGTCGTT, the “relative binding free energy” value was 0.22 kcal/mol.
In the case of CGTATCACGTGTATAT, the “relative binding free energy” value was 0.16 kcal/mol.
For ATATACACGTGGGGCT, the “relative binding free energy” value was -0.11 kcal/mol.
With CAGTTCACGTGTTAGG the “relative binding free energy” value was 0.22 kcal/mol.
With ATATTCACGTGAGCTG the “relative binding free energy” value was 0.32 kcal/mol.
With AAGGTCACGTGCGTGA the “relative binding free energy” value was -0.1 kcal/mol.
In the case of TTATGCACGTGCAGAG, the “relative binding free energy” value was 0.02 kcal/mol.
In the case of CGGTTCACGTGGTTTC, the “relative binding free energy” value was 0.21 kcal/mol.
With GTCAGCACGTGTTATT the “relative binding free energy” value was 0 kcal/mol.
For ATTTTCACGTGTGTGA, the “relative binding free energy” value was 0.23 kcal/mol.
With TAATTCACGTGGCTAT the “relative binding free energy” value was 0.23 kcal/mol.
GTGATCACGTGACTGG was tested, and the “relative binding free energy” value was 0.35 kcal/mol.
In the case of GGCGTCACGTGTAGGC, the “relative binding free energy” value was 0.13 kcal/mol.
In the case of AATGGCACGTGGGTCA, the “relative binding free energy” value was -0.39 kcal/mol.
With GAGTGCACGTGAGATT the “relative binding free energy” value was 0.28 kcal/mol.
With GCGTGCACGTGAGTTT the “relative binding free energy” value was 0.15 kcal/mol.
With AGAAGCACGTGAAGGT the “relative binding free energy” value was 0.09 kcal/mol.
In the case of AATGTCACGTGTCTGT, the “relative binding free energy” value was 0.2 kcal/mol.
In the case of TTGGCCACGTGAGAGG, the “relative binding free energy” value was 0.26 kcal/mol.
TGATGCACGTGCGTGT was tested, and the “relative binding free energy” value was -0.08 kcal/mol.
For GGTGCCACGTGTTATA, the “relative binding free energy” value was -0.08 kcal/mol.
GGCGTCACGTGGAAGG was tested, and the “relative binding free energy” value was 0.16 kcal/mol.
In the case of GTGCGCACGTGGTGAT, the “relative binding free energy” value was -0.08 kcal/mol.
For AGTATCACGTGGGGAG, the “relative binding free energy” value was -0.05 kcal/mol.
For TTGTTCACGTGGTACC, the “relative binding free energy” value was 0.13 kcal/mol.
In the case of ATGAACACGTGGGTTT, the “relative binding free energy” value was -0.07 kcal/mol.
In the case of CCTTACACGTGGGTGG, the “relative binding free energy” value was 0.11 kcal/mol.
With GATAACACGTGGAGGG the “relative binding free energy” value was -0.02 kcal/mol.
With ATTACCACGTGTTAGT the “relative binding free energy” value was -0.07 kcal/mol.
ATTCTCACGTGATTGT was tested, and the “relative binding free energy” value was 0.19 kcal/mol.
For GGTTTCACGTGTCAAG, the “relative binding free energy” value was 0.28 kcal/mol.
In the case of TACTGCACGTGAGTTA, the “relative binding free energy” value was 0.17 kcal/mol.
For AAGTTCACGTGTAACG, the “relative binding free energy” value was 0.37 kcal/mol.
With TACATCACGTGAGTTT the “relative binding free energy” value was 0.24 kcal/mol.
For AAACACACGTGTGTGT, the “relative binding free energy” value was 0.11 kcal/mol.
For GGGTGCACGTGATTCT, the “relative binding free energy” value was 0.12 kcal/mol.
For AGGCGCACGTGTGGCA, the “relative binding free energy” value was -0.05 kcal/mol.
ATGTCCACGTGGTATA was tested, and the “relative binding free energy” value was -0.06 kcal/mol.
With CGGGACACGTGGCGGT the “relative binding free energy” value was 0.02 kcal/mol.
ACGTACACGTGTGTGG was tested, and the “relative binding free energy” value was 0 kcal/mol.
For GGGGGCACGTGATAAA, the “relative binding free energy” value was 0.07 kcal/mol.
For TCGGTCACGTGTCAGT, the “relative binding free energy” value was 0.14 kcal/mol.
GTTATCACGTGGGGGG was tested, and the “relative binding free energy” value was 0.05 kcal/mol.
In the case of GGGTACACGTGTTGCG, the “relative binding free energy” value was -0.01 kcal/mol.
With CTTAGCACGTGTTTCG the “relative binding free energy” value was 0.03 kcal/mol.
With GGGTTCACGTGGGTTT the “relative binding free energy” value was 0.24 kcal/mol.
In the case of GGATGCACGTGATGCG, the “relative binding free energy” value was 0.21 kcal/mol.
With TGACACACGTGAGTGG the “relative binding free energy” value was 0.22 kcal/mol.
With AAGGGCACGTGGCGCG the “relative binding free energy” value was -0.16 kcal/mol.
For GTCGTCACGTGGTTGA, the “relative binding free energy” value was -0.19 kcal/mol.
In the case of GAATGCACGTGCTTGT, the “relative binding free energy” value was 0.1 kcal/mol.
For GTGGACACGTGGCGAG, the “relative binding free energy” value was 0.1 kcal/mol.
In the case of GATATCACGTGTGGTA, the “relative binding free energy” value was 0.3 kcal/mol.
In the case of CTGAGCACGTGGGCGT, the “relative binding free energy” value was -0.24 kcal/mol.
In the case of TAGGTCACGTGCTTGC, the “relative binding free energy” value was 0.07 kcal/mol.
With GCGTCCACGTGGGGGT the “relative binding free energy” value was -0.22 kcal/mol.
GGCTACACGTGTTTTT was tested, and the “relative binding free energy” value was 0.33 kcal/mol.
In the case of TGAAACACGTGGCGTG, the “relative binding free energy” value was 0.01 kcal/mol.
In the case of GGGTACACGTGATGTC, the “relative binding free energy” value was 0.31 kcal/mol.
In the case of TGTTACACGTGACGTT, the “relative binding free energy” value was 0.31 kcal/mol.
With TACTGCACGTGATATG the “relative binding free energy” value was 0.03 kcal/mol.
AGAGTCACGTGGGTAC was tested, and the “relative binding free energy” value was -0.03 kcal/mol.
TTGGGCACGTGGCAGG was tested, and the “relative binding free energy” value was -0.26 kcal/mol.
For TTTGCCACGTGTGGTT, the “relative binding free energy” value was -0.01 kcal/mol.
For TGATACACGTGTGTGG, the “relative binding free energy” value was 0.04 kcal/mol.
With ATTATCACGTGGAGTA the “relative binding free energy” value was 0.16 kcal/mol.
For GGTCGCACGTGCGATG, the “relative binding free energy” value was 0.04 kcal/mol.
CATAGCACGTGGTAGG was tested, and the “relative binding free energy” value was -0.21 kcal/mol.
AAGGGCACGTGGCTTT was tested, and the “relative binding free energy” value was -0.3 kcal/mol.
In the case of GTTCTCACGTGTAAGG, the “relative binding free energy” value was 0.19 kcal/mol.
In the case of ACGGTCACGTGTTGAG, the “relative binding free energy” value was 0.11 kcal/mol.
In the case of GTTGTCACGTGGTAAG, the “relative binding free energy” value was 0.15 kcal/mol.
In the case of TACAGCACGTGAGTGG, the “relative binding free energy” value was 0.03 kcal/mol.
In the case of TTCTTCACGTGGGTAG, the “relative binding free energy” value was 0.15 kcal/mol.
For TAAGTCACGTGGGGAA, the “relative binding free energy” value was -0.01 kcal/mol.
In the case of GCGTGCACGTGTGGCG, the “relative binding free energy” value was -0.1 kcal/mol.
GTGGGCACGTGAGATA was tested, and the “relative binding free energy” value was 0.25 kcal/mol.
AATTGCACGTGGGTTT was tested, and the “relative binding free energy” value was -0.12 kcal/mol.
For TTTCTCACGTGATGTA, the “relative binding free energy” value was 0.37 kcal/mol.
In the case of GGTTACACGTGAAGAT, the “relative binding free energy” value was 0.41 kcal/mol.
For TGTTGCACGTGCCGGG, the “relative binding free energy” value was -0.1 kcal/mol.
For CCTTGCACGTGGTGTT, the “relative binding free energy” value was -0.14 kcal/mol.
For GTTATCACGTGGATTG, the “relative binding free energy” value was 0.32 kcal/mol.
GGAGGCACGTGGAAGT was tested, and the “relative binding free energy” value was 0.08 kcal/mol.
For TATAACACGTGGGATG, the “relative binding free energy” value was -0.1 kcal/mol.
For GGGGCCACGTGTGTAG, the “relative binding free energy” value was -0.03 kcal/mol.
TAAGTCACGTGTGGTT was tested, and the “relative binding free energy” value was 0.09 kcal/mol.
With CATAGCACGTGTGGTG the “relative binding free energy” value was -0.12 kcal/mol.
In the case of GTATGCACGTGTGGAG, the “relative binding free energy” value was 0.08 kcal/mol.
GGTAGCACGTGTGAGC was tested, and the “relative binding free energy” value was -0.04 kcal/mol.
With TGGGACACGTGTCGGT the “relative binding free energy” value was 0.09 kcal/mol.
For GTGGACACGTGGAGAG, the “relative binding free energy” value was 0.12 kcal/mol.
In the case of ATTATCACGTGGGAGG, the “relative binding free energy” value was 0.16 kcal/mol.
AATGGCACGTGTTGGT was tested, and the “relative binding free energy” value was 0.02 kcal/mol.
For GTGGCCACGTGGAGGA, the “relative binding free energy” value was 0.02 kcal/mol.
In the case of AGGGACACGTGCTTGG, the “relative binding free energy” value was -0.07 kcal/mol.
TGGGCCACGTGCAGTT was tested, and the “relative binding free energy” value was -0.01 kcal/mol.
In the case of TTTCTCACGTGGGGAA, the “relative binding free energy” value was 0.15 kcal/mol.
In the case of GGTTTCACGTGGGAGC, the “relative binding free energy” value was 0.36 kcal/mol.
For AGGGGCACGTGGCTCT, the “relative binding free energy” value was -0.08 kcal/mol.
AGGAGCACGTGTATTA was tested, and the “relative binding free energy” value was -0.07 kcal/mol.
For TCTTACACGTGAGATT, the “relative binding free energy” value was 0.44 kcal/mol.
TTCTACACGTGTGTGC was tested, and the “relative binding free energy” value was 0.17 kcal/mol.
For ATCTGCACGTGGATTT, the “relative binding free energy” value was 0.12 kcal/mol.
In the case of CATGACACGTGGGGGG, the “relative binding free energy” value was -0.08 kcal/mol.
